Results are given in words; binding and its absence hold for the method and conditions named. Binding seen in cells or lysates may run through a third protein. Some entries that bind do so weakly or less than the wild type.

Sequences of proteins named here, by UniProt entry; tags and fusion partners are left off.
UniProt P63044: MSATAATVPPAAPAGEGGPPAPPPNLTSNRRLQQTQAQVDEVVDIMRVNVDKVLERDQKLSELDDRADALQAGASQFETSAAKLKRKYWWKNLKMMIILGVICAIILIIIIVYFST

Common to all, as to test: co-IP; HEK293T cells co-transfected with SLC9A9 and the partner plasmid, collected 36 h after transfection; lysed in 50 mM Tris-HCl pH 7.4, 1 mM EDTA, 150 mM NaCl, 1% Triton; protein A/G Plus-Agarose and 3 ug antibody, 12 h at 4 C, 5 washes; immunoblot; some samples with amiloride treatment (interaction inhibited)
(In general: Immunoblotting shows a protein as a band on a membrane.)

The target of one assay is T1, Vps41 (mouse) (UniProt Q5KU39).
T1 sequence: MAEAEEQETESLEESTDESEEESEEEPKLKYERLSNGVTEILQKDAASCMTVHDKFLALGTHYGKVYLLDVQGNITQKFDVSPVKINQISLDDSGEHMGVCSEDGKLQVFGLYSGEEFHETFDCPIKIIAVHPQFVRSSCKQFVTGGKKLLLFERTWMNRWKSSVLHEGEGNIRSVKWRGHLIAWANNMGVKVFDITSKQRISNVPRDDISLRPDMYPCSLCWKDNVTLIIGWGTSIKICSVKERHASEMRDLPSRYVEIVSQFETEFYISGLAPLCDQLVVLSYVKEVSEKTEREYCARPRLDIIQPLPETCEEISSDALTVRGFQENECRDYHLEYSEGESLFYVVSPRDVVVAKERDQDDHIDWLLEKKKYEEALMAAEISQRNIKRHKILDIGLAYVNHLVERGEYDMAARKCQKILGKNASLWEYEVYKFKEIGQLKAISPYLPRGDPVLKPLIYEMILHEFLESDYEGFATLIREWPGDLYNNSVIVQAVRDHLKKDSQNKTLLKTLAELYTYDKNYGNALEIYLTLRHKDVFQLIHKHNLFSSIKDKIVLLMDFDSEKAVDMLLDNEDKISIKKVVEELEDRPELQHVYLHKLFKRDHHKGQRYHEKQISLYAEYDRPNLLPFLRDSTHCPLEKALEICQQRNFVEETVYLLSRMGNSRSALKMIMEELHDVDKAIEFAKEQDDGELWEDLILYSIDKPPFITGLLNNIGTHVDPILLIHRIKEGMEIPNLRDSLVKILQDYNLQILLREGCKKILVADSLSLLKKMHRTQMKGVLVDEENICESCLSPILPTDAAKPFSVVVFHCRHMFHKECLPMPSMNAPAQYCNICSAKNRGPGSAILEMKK

The target of a further assay is Vamp2 (mouse) (UniProt P63044).
A further assay addresses T2, Vps39 (mouse) (UniProt Q8R5L3).
T2 sequence: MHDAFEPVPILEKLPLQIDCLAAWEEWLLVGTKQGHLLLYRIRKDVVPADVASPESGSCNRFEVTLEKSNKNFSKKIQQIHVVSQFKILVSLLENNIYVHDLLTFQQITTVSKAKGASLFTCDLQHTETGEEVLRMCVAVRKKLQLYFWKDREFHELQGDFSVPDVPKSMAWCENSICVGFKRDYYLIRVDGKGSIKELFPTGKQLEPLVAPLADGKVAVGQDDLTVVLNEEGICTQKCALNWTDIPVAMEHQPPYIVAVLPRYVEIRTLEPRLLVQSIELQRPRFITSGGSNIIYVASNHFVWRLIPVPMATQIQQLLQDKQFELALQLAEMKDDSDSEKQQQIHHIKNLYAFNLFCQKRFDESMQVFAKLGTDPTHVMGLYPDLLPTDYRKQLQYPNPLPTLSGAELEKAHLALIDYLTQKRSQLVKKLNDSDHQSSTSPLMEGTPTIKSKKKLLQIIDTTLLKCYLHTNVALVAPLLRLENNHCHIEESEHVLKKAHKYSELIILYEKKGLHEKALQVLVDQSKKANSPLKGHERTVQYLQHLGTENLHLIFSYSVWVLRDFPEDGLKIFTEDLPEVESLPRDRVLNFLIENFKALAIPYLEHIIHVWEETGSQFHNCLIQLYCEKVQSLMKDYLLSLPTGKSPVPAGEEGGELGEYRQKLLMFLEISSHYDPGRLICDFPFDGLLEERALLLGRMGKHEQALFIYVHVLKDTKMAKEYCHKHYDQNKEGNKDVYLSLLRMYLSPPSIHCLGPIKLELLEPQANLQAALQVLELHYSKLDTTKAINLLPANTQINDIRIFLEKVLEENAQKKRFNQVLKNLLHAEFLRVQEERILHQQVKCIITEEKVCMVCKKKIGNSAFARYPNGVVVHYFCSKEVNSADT

Another assay has as its target T3, Stx18 (mouse) (UniProt Q8VDS8).
T3 sequence: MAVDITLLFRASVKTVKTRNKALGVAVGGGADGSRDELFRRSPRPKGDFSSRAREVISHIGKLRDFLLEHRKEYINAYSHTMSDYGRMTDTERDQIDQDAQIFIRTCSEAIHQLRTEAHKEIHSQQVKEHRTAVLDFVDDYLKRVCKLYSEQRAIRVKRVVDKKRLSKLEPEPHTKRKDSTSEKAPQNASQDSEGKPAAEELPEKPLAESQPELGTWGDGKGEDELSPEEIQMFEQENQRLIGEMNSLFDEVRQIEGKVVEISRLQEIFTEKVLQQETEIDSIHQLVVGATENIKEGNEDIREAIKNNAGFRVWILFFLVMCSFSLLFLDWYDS

B1: Endosomal solute carrier family 9 member A9 (SLC9A9) (protein, UniProt Q8BZ00 1-644)
chain: MAGQLRFTSGKDEDHFQHQGAVELLAFNFLLILTILTIWLFKNHRFRFLHETGGAMVYGLIMGLILRYATAPTDIDSGTVYNCGNLFFSPSTLLVNITDQVYEYKYQREINQHNISPHQGNAILEKMTFDPEIFFNVLLPPIIFHAGYSLKKRHFFQNLGSILTYAFLGTAISCVVIGLIMYGFVKAMVHAGQLKSGDFHFTDCLFFGSLMSATDPVTVLAIFHELHVDPDLYTLLFGESVLNDAVAIVLTYSISIYSPKENPNAFDTAAFFQSVGNFLGIFAGSFAMGSAYAVVTALLTKFTKLREFPMLETGLFFLLSWSAFLSAEAAGLTGIVAVLFCGVTQAHYTYNNLSSDSKLRTKQLFEFMNFLAENVIFCYMGLALFTFQNHIFNALFILGAFLAIFVARACNIYPLSFLLNLGRKQKIPWNFQHMMMFSGLRGAIAFALAIRNTESQPKQMMFTTTLLLVFFTVWVFGGGTTPMLTWLQIRVGVDLDESLKEEPSSQQEANKLDKNMTKTESAQLFRMWYGFDHKYLKPILTHSGPPLTTTLPAWCGPVSRLLTSPQAYGEQLKEDDVECIVNQDELAMNYQEQSPSPSSPTTKLALDQKSSGQTPGKENIYEGDLGLGGYDLKLEQTRGQPQMD
Regarding B1, the binding result is recorded as “binds” with Vps41 (mouse), “no binding” with Vamp2 (mouse), “binds” in the assay with Vps39 (mouse) and “binds” with Stx18 (mouse).

These data come from publication PMC12537989.
